From article PMC12136788
The other results are listed elsewhere or left out.

B1: chrX:9032958:9033121:-|CDS|ENSG00000177138|control|control|control (ssRNA)
RNA: GGGAGUUCUACAGUCCGACGAUCCCAGGUUUCCUUAGCUUCCUUAGUGUGUCUUUGCGCUCACCAGGUUCGGGGAUCGCCUCUAGCUUCCCAGGACAACCAGCCACGGAUCCUGUGGGCAGGAGGGCUGCCAAGGCCCAGUUGCAACAGAGGAUUGAGCAUCA
B2: chr22:38485951:38486139:-|CDS|ENSG00000100201|unk|total|mutant (ssRNA)
RNA: GGGAGUUCUACAGUCCGACGAUCCCGCCGCACCACCUCAACUGGGAGAAGUUCACAGAGCUCCCGCCAGCAGUUCCGUGGGACCGGCCGGUCUGGGCAGCAGCCACAGCCACUGAUGUCACAACAGUUUGCACAGCCUCCGGGCAACAGAGGAUUGAGCAUCA
B3: chr3:23954599:23954720:+|CDS|ENSG00000174738|unk|FALSE|unique (ssRNA)
RNA: GGGAGUUCUACAGUCCGACGAUCAGUGAGGGUUCUGAGAAUAGUUUCCAGUCCUCCUCCUCUUCUGUUCCAUCUUCUCCAAAUAGCUCUAAUUCUGAUACCAAUGGUAAUCCCAAGAAUGGUGAUCUCGCCAAUAUUGAAGGCCAACAGAGGAUUGAGCAUCA
B4: chr17:64498535:64498649:-|3pUTR|ENSG00000108654|unk|total|mutant (ssRNA)
RNA: GGGAGUUCUACAGUCCGACGAUCUUAAACUGAGGCUUUAAUUGAUGUUAAUGCCUUAUGUCAAAUGUAAAGUCCGAAUUUGCCCGGGCUGGGACCGGGAGUGAUAUUUCCCGGACUCCGACAUUGAAAACUAAUUCAGCCUGUCAACAGAGGAUUGAGCAUCA
B5: chr12:7729382:7729740:-|three_prime_utr|ENSG00000198178|control|control|control (ssRNA)
RNA: GGGAGUUCUACAGUCCGACGAUCAUCUACAUAUAAAUGAAAUAUUCUCCCUGGAAAUGUGUUUGGGUUGGCAUCCACCGUUGUAGAAAGCUAAAUUGAUUUUUUAAUUUAUGUGUAAGUUUUGUACAAGGAAUGCCCCUAAAACAACAGAGGAUUGAGCAUCA
B6: chrX:53645320:53645442:-|CDS|ENSG00000086758|unk|total|mutant (ssRNA)
RNA: GGGAGUUCUACAGUCCGACGAUCUUAUUGGCUUCCUCUGAUAUGCAAGUGGUGCUGGCAGUCCUCAAUCUCCUAUAUGUAUUCCGCAAAAGAUCAAACUACAUCACUCGUCUGGGAUCUGACAAGAGGACCCCGCUGCUAACUCAACAGAGGAUUGAGCAUCA

biological target: MSI1 full-length (mouse, UniProt Q61474 1-362); assay: nsRBNS (natural sequence RNA bind-n-seq); RBNS binding buffer (assumed for nsRBNS): 25 mM Tris pH 7.5, 150 mM KCl, 3 mM MgCl2, 0.01% Triton X-100, 500 ug/ml BSA, 20 U/ml SUPERase-In, 4 C; UNK is unkempt and MSI1 is Musashi-1; names of the RNAs are library labels; protein concentration not given here; high values mean tight binding
Sequence of UniProt Q61474 (Q61474 whole entry): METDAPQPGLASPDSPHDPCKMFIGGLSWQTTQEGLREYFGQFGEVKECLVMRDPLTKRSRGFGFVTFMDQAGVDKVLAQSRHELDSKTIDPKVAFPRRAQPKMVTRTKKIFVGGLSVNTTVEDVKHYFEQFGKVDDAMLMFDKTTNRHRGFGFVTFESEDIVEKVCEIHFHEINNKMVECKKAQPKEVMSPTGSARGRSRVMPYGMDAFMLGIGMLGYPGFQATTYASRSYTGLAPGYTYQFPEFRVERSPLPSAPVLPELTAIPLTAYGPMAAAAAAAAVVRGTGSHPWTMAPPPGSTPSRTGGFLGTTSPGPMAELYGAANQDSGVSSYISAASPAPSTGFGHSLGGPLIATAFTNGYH

For B1, which binding signal is on record?
The binding signal was 0.802 enrichment R.

How did the binding signal turn out when B2 was run?
The binding signal was 0.45 enrichment R.

B3 was tested. Which binding signal did it give?
The binding signal was 1.23 enrichment R.

Which binding signal does the source give for B4 here?
The binding signal was 0.202 enrichment R.

For B5, which binding signal is on record?
Its binding signal is 0.681 enrichment R.

Which binding signal does the source give for B6 here?
Its binding signal is 0.555 enrichment R.
